Measured values taken from PubChem BioAssay AID1452 (National Center for Advancing Translational Sciences (NCATS), 2008).
Where “and” joins values, the source holds several entries; their conditions need not be identical. Identical values can stand only once. The campaign covered roughly 150,000 compounds. About 190 (0.13%) were called active. Inconclusive means that the source gave no clear call. Such entries were picked first, then a sample of the others. Calls come from the whole dose curve; as a rule, active = well fitted inhibition curve with a large enough effect; inconclusive = small, poorly fitted or top-dose-only effect; inactive = flat fitted curve, though single readings scatter. Potencies of inconclusive entries are doubtful fits and often do not repeat.

biological target: Polyunsaturated fatty acid lipoxygenase ALOX12 (Homo sapiens) (UniProt P18054); test: qHTS Assay for Inhibitors of 12-hLO (12-human lipoxygenase); settings: purified 12-hLO, xylenol orange hydroperoxide absorbance; series mostly up to 57.1 µM; note: nearly all actives have a fitted effect of over 55% in size
UniProt P18054, sequence (P18054 whole entry, looked up): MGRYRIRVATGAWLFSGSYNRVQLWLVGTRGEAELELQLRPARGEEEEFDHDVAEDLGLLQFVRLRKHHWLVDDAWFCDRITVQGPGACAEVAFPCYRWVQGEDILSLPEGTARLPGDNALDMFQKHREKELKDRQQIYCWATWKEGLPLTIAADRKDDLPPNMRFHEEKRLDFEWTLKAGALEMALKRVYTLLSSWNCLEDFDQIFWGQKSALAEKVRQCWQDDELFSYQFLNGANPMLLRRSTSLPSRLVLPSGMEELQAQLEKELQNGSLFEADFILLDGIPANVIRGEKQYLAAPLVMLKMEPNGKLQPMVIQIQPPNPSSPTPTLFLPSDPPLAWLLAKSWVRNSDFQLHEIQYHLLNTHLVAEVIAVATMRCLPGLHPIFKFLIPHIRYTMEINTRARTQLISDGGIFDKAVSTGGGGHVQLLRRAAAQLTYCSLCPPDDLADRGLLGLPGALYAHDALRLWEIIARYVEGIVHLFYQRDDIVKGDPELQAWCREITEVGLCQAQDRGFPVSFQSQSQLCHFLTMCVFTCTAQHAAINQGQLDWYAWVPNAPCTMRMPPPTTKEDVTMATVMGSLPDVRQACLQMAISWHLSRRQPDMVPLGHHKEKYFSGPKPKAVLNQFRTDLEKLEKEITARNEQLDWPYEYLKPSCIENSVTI
Method in brief: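 Hydroperoxide output read as Fe(III)-xylenol orange absorbance, 573-to-405 nm ratio, after 30 min reaction with 40 uM arachidonic acid. Enzyme: 150 nM purified human 12hLO, 15 min compound preincubation; 25 mM Hepes pH 7.0, room temperature.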
% is set by controls: 0 for no effect and ±100 for the full control effect; potency is the fitted concentration of half-maximal effect; tags give direction and shape of the fitted curve.

Potency, inconclusive:
CCOc1ccc2c(c1)C(C)=CC(C)(C)N2 12.6 µM [inhibitor, partial curve]
N=c1n(CCN2CCOCC2)c2ccccc2n1CC(=O)c1ccc(Cl)c(Cl)c1 7.94 µM [inhibitor, partial curve]
Cc1ccc(C(=O)/C=C/Nc2ccc3c(c2)OCO3)cc1 25.1 µM [inhibitor, partial curve]
CC(C)c1ccc(O)c(O)c(=O)c1 (tested in a mixture with another compound) 0.141 µM [inhibitor, partial curve]
CCCc1cc(-c2[nH]ncc2-c2ccc(C(=O)OCC)o2)c(O)cc1O 20 µM [inhibitor, partial curve, poor fit]
CCn1c(SCC(=O)c2ccc(O)c(O)c2)nnc1-c1ccccc1 0.0562 µM [inhibitor, full curve, poor fit]
Cc1cc(C2CCCCC2)n(O)c(=O)c1 891 nM [inhibitor, full curve] and 708 nM [inhibitor, full curve]
O=C(Nc1nc2n(n1)C(c1ccccc1)CC(c1ccc(Cl)cc1)N2)c1ccco1 (stereo not given) 15.8 µM [inhibitor, partial curve]
CCn1c(NC(=S)Nc2ccccc2)nc2ccccc21 12.6 µM [inhibitor, partial curve]
N#C/C(C(N)=O)=c1/ccc2c(c1)N1C3=C(CCCC3)CC3CCCCC31N=2 (stereo not given) 15.8 µM [inhibitor, partial curve]
O=C(Nc1nnc(-c2ccccc2)o1)c1ccc(Cl)cc1 2.82 µM [inhibitor, full curve]
O=C(NC(=S)Nc1ccc2[nH]ncc2c1)c1ccccc1 31.6 µM [inhibitor, single point]
CCOC(=O)C1=C(C)N(c2ccc(C)c(C)c2)C(=O)/C1=C\c1ccco1 17.8 µM [inhibitor, partial curve]
Cc1cc(C)cc(NC(=S)N2CCC(c3nc4ccccc4s3)CC2)c1 31.6 µM [inhibitor, single point]
Cc1ccccc1C(=O)NC(=S)Nc1sc2c(c1C#N)CCC(C)C2 (stereo not given) 31.6 µM [inhibitor, single point]
Oc1ccc2ccccc2c1N=Nc1ccccn1 11.2 µM [inhibitor, partial curve]
S=C(NCCCc1cnc[nH]1)NCCCN(Cc1ccc(Cl)c(Cl)c1)c1ccc(Br)cn1 39.8 µM [inhibitor, single point]
CCN(CC)c1ccc(C(=O)NC(=S)N2CCN(Cc3ccc4c(c3)OCO4)CC2)cc1 35.5 µM [inhibitor, single point]
Cc1ccc(NC(=S)NCc2ccc3c(c2)OCO3)cc1C 25.1 µM [inhibitor, single point]
COc1ccc(Cl)cc1NC(=S)NCCC(c1ccccc1)c1ccccc1 25.1 µM [inhibitor, partial curve]
On1c2c(c3c4nonc4ccc31)CCCC2 28.2 µM [inhibitor, single point]
CCOc1ccc(/C=C/[N+](=O)[O-])c2ccccc12 22.4 µM [inhibitor, single point]
Cc1cc(C)c2cc(CN(Cc3nnnn3C3CCCCC3)CC3CCCO3)c(=O)[nH]c2c1 (stereo not given) 14.1 µM [inhibitor, partial curve]
CCOC(=O)c1c(N2C(=O)C3C4C=CC(O4)C3C2=O)sc2c1CCCC2 (stereo not given) 14.1 µM [inhibitor, partial curve]
COc1ccc(CNC(=S)Nc2cc(C)cc(C)c2)cc1 28.2 µM [inhibitor, partial curve]
CCOC(=O)C1CCN(Cc2ccc(O)c3ncccc23)CC1 7.94 µM [inhibitor, partial curve]
COc1ccc(C2CC(c3ccc(Cl)cc3Cl)Nc3nc(N)nn32)cc1 (stereo not given) 28.2 µM [inhibitor, partial curve]
CCOc1cccc(C(=O)NC(=S)Nc2cccc(C)c2)c1 14.1 µM [inhibitor, partial curve]
Cc1ccc(-c2ccc(CCC(=O)O)n2Cc2ccco2)cc1 15.8 µM [inhibitor, partial curve]
COc1ccc2nc(-c3ccco3)c(-c3ccco3)nc2c1 10 µM [inhibitor, partial curve]
COc1ccc(C2C=C(C34CC5CC(CC(C5)C3)C4)NC(=S)N2)cc1 (stereo not given) 15.8 µM [inhibitor, partial curve]
O=C(NC(=S)Nc1ccc(S(=O)(=O)N2CCCCC2)cc1)c1ccc(Cl)cc1 1.58 µM [inhibitor, full curve]
Cc1ccc(C2CC(c3ccc(Cl)cc3)=NNC2=O)cc1 (stereo not given) 17.8 µM [inhibitor, partial curve]
S=C(Nc1ccccc1)Nc1nc2ccccc2n1CCOc1ccc(Cl)cc1 7.08 µM [inhibitor, single point]
N#CC1=C2SCN(c3ccccc3)CN2C(=O)CC1c1cccs1 (stereo not given) 15.8 µM [inhibitor, partial curve]
CC(=O)N1CCN(c2ccc(NCc3cccs3)cc2)CC1 28.2 µM [inhibitor, single point]
CCOc1cccc(CNc2ccc(O)cc2)c1OCc1ccccc1Cl 3.98 µM [inhibitor, single point]
Cc1ccc(NS(=O)(=O)c2cc([N+](=O)[O-])ccc2NNC(=S)Nc2cccc(Cl)c2)c(C)c1 25.1 µM [inhibitor, single point]
Cc1cccc(NC(=S)N/C(=N/S(=O)(=O)c2ccccc2)c2ccccc2)c1 25.1 µM [inhibitor, single point]
O=C(CC(=O)c1ccccc1O)c1cccc(F)c1 8.91 µM [inhibitor, partial curve]
CC(C)C(=O)NC(=S)Nc1ccc(S(=O)(=O)N(C)Cc2ccccc2)cc1 25.1 µM [inhibitor, partial curve]
CCCC(=O)NC(c1cccs1)c1cc([N+](=O)[O-])c2cccnc2c1O (stereo not given) 0.631 µM [inhibitor, full curve, poor fit]
COc1ccc(/C=N/NS(=O)(=O)c2ccc(C)cc2)cc1OC(=O)c1ccccc1 12.6 µM [inhibitor, partial curve]
Cc1ccccc1-n1c(=O)/c(=C\c2ccco2)s/c1=C(/C#N)C(=O)Nc1ccccc1 17.8 µM [inhibitor, partial curve]

Potency, active:
OCCN1CCN(C(c2cccs2)c2ccc3cccnc3c2O)CC1 (stereo not given) 14.1 µM
O=C(/C=C1\NC2(CCCC2)Cc2ccccc21)C(=O)N/N=C/c1ccc(O)c(O)c1 0.891 µM
COc1cc(NS(=O)(=O)c2ccc(N/C=C(\C=O)c3nc4cc(Cl)ccc4o3)cc2)nc(OC)n1 15.8 µM

Potency, inactive:
COC(=O)c1ccccc1NC(=O)CSc1nnc(Cc2ccc(Cl)cc2)o1
c1ccc2c(N3CCNCC3)nc(-c3ccoc3)nc2c1
Cc1ccc(S(=O)(=O)NCCc2ccccc2)cc1
COc1cc(OC)c(OC)cc1/C=C/C(=O)c1ccc(NS(=O)(=O)c2ccc(C)cc2)cc1
Brc1ccc(CSc2nnc(-c3ccco3)o2)cc1
C=CCSc1nnc(-c2cnn(-c3ccccc3)c2-n2cccc2)n1C
O=C(Nc1cccc(Cl)c1)c1cccc(Oc2ccc([N+](=O)[O-])cc2Cl)c1
CC(=O)c1cccc(NC(=O)N2CCc3ccccc3C2)c1
CC1(C)Oc2ccc(C#N)cc2[C@H](N2CCCC2=O)[C@H]1O
c1cncc(-c2nn3cnnc3s2)c1
O=C(c1ccc(S(=O)(=O)Nc2ccccc2)cc1)N1CCOCC1
O=c1cnc2cnc(Oc3ccccc3)nc2n1Cc1ccc(F)cc1
Cc1onc(-c2ccccc2Cl)c1C(=O)Nc1cccnc1
O=C(C1CCN(Cc2ccccc2)CC1)N1CCCC1
Cc1ccc(/C=C/C(=O)N2CCN(c3cccc(C(F)(F)F)c3)CC2)cc1
COc1ccc(C2=NOC(C(=O)Nc3ccc(C)cc3)C2)cc1OC (stereo not given)
COc1cc(NC(=O)C2CCN(S(=O)(=O)c3cccnc3)CC2)cc(OC)c1OC
O=C(Nc1ccccc1Cl)N1CCn2c(nc3ccccc32)C1
O=C(NCc1ccco1)c1c(O)c2cccc3c2n(c1=O)CCC3

Activity change, negative = inhibition, inactive:
Clc1ccc(Cl)c(SCCCN2CCNCC2)c1 1.21% [at 11.4 µM]
CC[C@@H]1C(c2cccc(C)c2)=NN(c2ccc(Br)cc2)[C@H]1C(=O)N1CCOC1=O -4.42% [at 0.00818 µM]
CCCCc1nc2c(c3c1C[C@H](C)OC3)CN(C(=O)C1CC1)CC2 0.753% [at 11.4 µM]
Oc1c(Cl)cc(C(c2cc(Cl)c(O)c(Cl)c2)C(c2cc(Cl)c(O)c(Cl)c2)c2cc(Cl)c(O)c(Cl)c2)cc1Cl -28.7% [at 11.4 µM]
